Test results taken from the supplement of paper PMC3334620.
Whole data set: some 33,000 sequences, median “E-score (-0.5 to 0.5)” near -0.013, cut for the highest 2% near 0.3. Some of the results follow.

These sequences were tested against T1, Msn1 (UniProt P22148) (assay: PBM E-score (8-mer binding enrichment) (E-score (-0.5 to 0.5)); higher = stronger / more preferred TF binding; most listed sequences are background and not binding sites). Details: protein concentration: 200 nM; construct: GST-full length.
T1 sequence: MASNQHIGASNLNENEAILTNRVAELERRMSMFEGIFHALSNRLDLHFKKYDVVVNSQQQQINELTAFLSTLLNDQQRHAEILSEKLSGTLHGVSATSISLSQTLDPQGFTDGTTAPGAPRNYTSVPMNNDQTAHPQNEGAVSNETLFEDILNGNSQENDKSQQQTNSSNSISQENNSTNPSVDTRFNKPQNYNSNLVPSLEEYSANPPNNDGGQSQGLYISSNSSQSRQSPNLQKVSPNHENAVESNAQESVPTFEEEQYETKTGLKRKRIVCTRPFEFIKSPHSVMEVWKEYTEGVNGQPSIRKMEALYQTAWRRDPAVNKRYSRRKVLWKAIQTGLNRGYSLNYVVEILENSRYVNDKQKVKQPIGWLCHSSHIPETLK
Experimental: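 Universal 'all 10-mer' protein binding microarrays (Agilent AMADID 015681) probed with GST-tagged S. cerevisiae TFs (full-length or DBD) made by in vitro transcription/translation (PURExpress), about 100-200 nM. Bound TF was detected with fluorescent anti-GST. Each ungapped 8-mer (which stands for itself and its reverse complement) is scored by the PBM enrichment score (E-score), a modified Wilcoxon-Mann-Whitney statistic from -0.5 to +0.5, computed with the Universal PBM Analysis Suite. Scale: above 0.35 generally sequence-specific binding.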

Row | Sequence | PBM E-score
1 | AATCGGTC | 0.0137
2 | CGAGGGAG | -0.302
3 | CCATCTTA | -0.0532
4 | CACAGTAG | -0.0222
5 | GTACAGAC | 0.179
6 | ACTAGTTG | -0.0917
7 | CCGATACA | 0.132
8 | CCCTCTGC | -0.383
9 | AACGTTTG | -0.00651
10 | CAGCTAGA | -0.0369
11 | AGATAACA | 0.0684
12 | GTGCTCTA | -0.159
13 | CATAGAAC | -0.136
14 | AGTAAAAC | -0.0534
15 | ACTGCCGC | 0.0385
16 | CGTGCATC | -0.203
17 | ATCGTAAG | -0.07
18 | CCCGCGAA | 0.0232
19 | GAAGATCC | 0.0124
20 | CGGAGCTC | -0.0232
21 | CTTCCAAA | -0.0435
22 | ACTTAGAT | 0.288

Row | Sequence | PBM E-score
23 | GGACATAC | 0.48
24 | CCTTTTAC | 0.0837
25 | AACAAATG | 0.291
26 | TCAGGCAA | -0.0779
27 | ATGCAGAC | 0.144
28 | CCCATGAA | -0.0272
29 | GCTTAAGA | -0.0621
30 | AAGATTCG | 0.174
31 | AAAGCAAG | 0.0738
32 | AGTGATAA | 0.024
33 | AGCTAACG | 0.0181
34 | CCGCTCGC | -0.188
35 | CAATGCTA | -0.0155
36 | CGTTTGCA | 0.0699
37 | CTGTCGAA | -0.0976
38 | CAAGGAAC | 0.123
39 | AGGCCAAA | -0.119
40 | CTGTTACA | 0.0596
41 | CCTCGCTA | -0.212
42 | GCAGGACA | 0.47
43 | ACCCGTTA | 0.00896
44 | AAATAAGA | 0.154

Row | Sequence | PBM E-score
45 | ATATAAGA | 0.182
46 | CTCAAGGA | 0.0528
47 | AAGCGCTG | -0.0591
48 | AAGACCTC | -0.222
49 | TCAGCCGA | 0.13
50 | ACCCATAG | -0.292
51 | CCATAACG | 0.00258
52 | GAGCCTGA | -0.153
53 | GGAAAATA | 0.114
54 | AACGTCTA | 0.0482
55 | ATAACTTC | 0.142
56 | CCCTTGAG | -0.135
57 | GCCACTGA | -0.295
58 | GAAGGTTA | -0.0328
59 | AAGGAGGA | -0.153
60 | GCCAGAGA | -0.0332
61 | CATGAGGG | -0.0694
62 | GTAGAGGA | -0.329
63 | CATTTGTC | 0.485
64 | CATACTGA | 0.00482
65 | ACCCTCGG | 0.0965
66 | GACATACA | 0.414

Row | Sequence | PBM E-score
67 | ACTAACTG | 0.0908
68 | AACGCCGT | 0.00803
69 | AATCAGCG | -0.0445
70 | ACACTGGA | 0.0822
71 | GCTGTATA | -0.0745
72 | GCATGGGA | -0.139
73 | AAATTCTC | -0.0923
74 | CGACCTGA | 0.0583
75 | GATCCCAA | 0.0564
76 | CCTATTGC | -0.109
77 | AAATACCT | 0.0549
78 | ACTATGAA | 0.112
79 | ATGGGCGA | -0.219
80 | CGCAGCTC | -0.131
81 | GGAGTCAC | -0.164
82 | GCCTTTCA | -0.179
83 | GTCCGCAA | 0.281
84 | ATGGCAGG | 0.0777
85 | AGACAAGG | 0.162
86 | CGGCAGCA | -0.259
